PubChem BioAssay AID624170 (National Center for Advancing Translational Sciences (NCATS), 2012)
The whole screen tested about 410,000 compounds, of which about 850 (0.21%) were called active. Inconclusive results, whose numbers are uncertain, are shown with a selection of clear calls. Calls follow the shape of the dose curve; as a rule, active = well fitted inhibition curve with a large enough effect; inconclusive = small, poorly fitted or top-dose-only effect, or another doubt; inactive = no such curve, though single readings can be large or run the other way. No potency is given beside an inconclusive call; the fits are too rough.
% is scaled to controls: 0 for no effect and ±100 for the full control effect; potency is read from the fitted curve at half-maximal effect; tags tell the direction and shape of the fitted curve.

The molecules below were run against Glutaminase kidney isoform, mitochondrial (Homo sapiens) (UniProt O94925) (assay: qHTS for Inhibitors of Glutaminase (GLS)). Settings: GLS enzymatic activity, qHTS titration; series mostly up to 45.5 µM; activity change, negative = inhibition: at the top concentration.
Sequence of UniProt O94925 (O94925 whole entry, looked up, canonical isoform): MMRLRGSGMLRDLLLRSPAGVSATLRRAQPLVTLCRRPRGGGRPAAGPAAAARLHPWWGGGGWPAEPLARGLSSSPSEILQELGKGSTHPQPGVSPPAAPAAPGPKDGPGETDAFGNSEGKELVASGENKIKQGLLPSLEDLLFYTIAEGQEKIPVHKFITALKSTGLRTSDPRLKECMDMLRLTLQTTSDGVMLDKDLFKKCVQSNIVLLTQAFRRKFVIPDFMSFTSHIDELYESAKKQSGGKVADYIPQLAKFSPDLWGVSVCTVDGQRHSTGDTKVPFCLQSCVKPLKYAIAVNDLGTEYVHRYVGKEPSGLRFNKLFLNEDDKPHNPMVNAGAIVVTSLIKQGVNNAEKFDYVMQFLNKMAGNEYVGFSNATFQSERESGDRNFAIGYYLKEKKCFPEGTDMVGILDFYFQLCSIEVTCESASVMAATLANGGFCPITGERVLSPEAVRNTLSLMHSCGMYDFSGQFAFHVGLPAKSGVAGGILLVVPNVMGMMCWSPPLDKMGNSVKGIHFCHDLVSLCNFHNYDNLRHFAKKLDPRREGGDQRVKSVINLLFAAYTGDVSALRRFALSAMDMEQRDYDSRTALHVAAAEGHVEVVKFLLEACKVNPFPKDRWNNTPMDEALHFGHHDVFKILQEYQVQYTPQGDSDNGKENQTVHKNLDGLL
Procedure, shortened: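 hKGA in 45 mM KH2PO4 (pH 8.2), 0.02% Tween-20 with compound, then 1mM L-Glutamine (stock as added) plus glutamate oxidase/HRP/Amplex red coupling mix. Fluorescence read initially and after 30 min at RT; signal change reflects glutamate formation.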
In the case of O=C(c1ccccc1)c1cc(Cl)ccc1N1C(=O)C=CC1=O, the Potency is reported as inconclusive [inhibitor, single point]. For O=C(Nc1ccc(O)cc1)c1ccc(NC(=O)c2ccco2)cc1, the Potency was inconclusive [inhibitor, partial curve]. CCOC(=O)N1CCC(N2Cc3cccc(C(=O)NCc4ccc5c(c4)OCO5)c3C2=O)CC1 was tested, and the “activity change, negative = inhibition” value was inactive: -10%. In the case of O=S(=O)(Nc1nc2n(n1)C(c1ccc(F)cc1)C=C(c1ccccc1)N2)c1ccc(Cl)cc1 (centres undefined), the Potency is reported as inconclusive [inhibitor, single point]. CN(CC(=O)Nc1ccc(Cl)c(C(F)(F)F)c1)C(=O)/C=C/c1ccco1 was tested, and the “activity change, negative = inhibition” value was inactive: -1.79%. O=C(Nc1ccc(Br)cc1Cl)c1cnccn1 was tested, and the Potency was inconclusive [inhibitor, single point]. With Cc1c(CCC(=O)O)c(=O)oc2cc3occ(-c4ccccc4)c3cc12 the Potency was active: 11.2 µM. COC(=O)/C=C1/C(=O)N/C(=N\c2nc(C)cc(C)n2)N1c1ccc(OC)cc1 was tested, and the “activity change, negative = inhibition” value was inactive: 4.49%. With Cc1cccc(-c2nc3ccccc3c(=O)n2NC(=O)/C=C/c2ccc([N+](=O)[O-])cc2)c1 the “activity change, negative = inhibition” value was inactive: 2.2%. CC(C)OCCCNC(=O)Cn1ccc2cc(S(=O)(=O)N3CCCCC3)ccc21 was tested, and the Potency was inconclusive [inhibitor, partial curve]. With CCCN=Cc1ccc(O)cc1 the Potency was inconclusive [inhibitor, single point]. For Cc1ccc(OCC(=O)Nc2cc(C(=O)O)cc(C(=O)O)c2)cc1C, the Potency was inconclusive [inhibitor, single point]. With CN1C(=O)c2cccc3c(S(=O)(=O)Nc4ccc(O)c(C(=O)O)c4)ccc1c23 the Potency was inconclusive [inhibitor, partial curve]. For CCOC(=O)C(=O)NNc1ccc(F)cc1, the Potency was inconclusive [inhibitor, partial curve, poor fit]. With Cc1cc(C)c(Cn2c(=O)n(CCCCCC(=O)NCc3ccc4c(c3)OCO4)c(=O)c3sccc32)c(C)c1 the “activity change, negative = inhibition” value was inactive: -23.1%. With COC(=O)CNC(=O)C12CC3(C)CC(C)(CC(C)(C3)C1)C2 the “activity change, negative = inhibition” value was inactive: -5.23%. In the case of COc1ccc(NC(=O)C2CCN(S(=O)(=O)c3c(C)noc3/C=C/c3ccco3)CC2)cc1, the Potency is reported as inconclusive [inhibitor, single point]. With O=C1C(Cl)=C(NC(=O)c2ccccc2)C(=O)C(Cl)=C1NC(=O)c1ccccc1 the Potency was inconclusive [inhibitor, full curve]. For COc1ccccc1N1CCN(S(=O)(=O)c2c(C)[nH]c(=O)[nH]c2=O)CC1, the “activity change, negative = inhibition” value was inactive: 20.1%. With CCCC(C)C(=O)Nc1nc(C)c(-c2csc(Nc3ccccc3OC)n2)s1 (centres undefined) the “activity change, negative = inhibition” value was inactive: -0.311%. Nc1[nH][nH]c(=O)c1N=Nc1ccccc1 was tested, and the Potency was inconclusive [inhibitor, partial curve]. In the case of CCSc1nc(C)nc2sc(C)c(C)c12, the Potency is reported as inconclusive [inhibitor, single point]. With Cc1ccc(-c2cc(C(=O)NN)n[nH]2)o1 the Potency was inconclusive [inhibitor, single point]. In the case of CCOC(=O)c1c(C)nc(SC)c(C#N)c1-c1ccccc1, the Potency is reported as inconclusive [inhibitor, single point]. Cc1ccc(C2=NOC(C)(c3nnc(-c4ccc(Cl)cc4)o3)C2)cc1 (centres undefined) was tested, and the “activity change, negative = inhibition” value was inactive: -3.99%. For C/C(=N\Nc1nc2c(s1)CCCC2)c1ccccc1, the “activity change, negative = inhibition” value was inactive: 6.65%. In the case of Cc1cccc(Cc2cnc(NC(=O)c3ccc4c(c3)CC(c3ccccc3)OC4=O)s2)c1 (centres undefined), the “activity change, negative = inhibition” value is reported as inactive: -5.24%. CCOc1cc(/C=C2\C(=O)ON=C2c2ccccc2)cc(Br)c1O was tested, and the Potency was active: 8.91 µM. O=S(=O)(Cc1ccccc1)N(O)c1ccccc1 was tested, and the Potency was inconclusive [inhibitor, single point]. In the case of O=C(Nc1cccs1)Nc1ccc(F)cc1F, the Potency is reported as inconclusive [inhibitor, partial curve]. CCCn1c(SCC(=O)NCC)nc2sc3c(c2c1=O)CCC3 was tested, and the Potency was inconclusive [inhibitor, partial curve, poor fit]. For CNC(=S)N/N=C/c1ccc(N(C)C)cc1, the Potency was inconclusive [inhibitor, single point]. Cc1ccc(CN(CC(=O)N/N=C/c2ccccc2[N+](=O)[O-])S(=O)(=O)c2ccc(C)cc2)cc1 was tested, and the “activity change, negative = inhibition” value was inactive: -1.37%. In the case of CN(C)S(=O)(=O)c1ccc(-c2csc(N/N=C/c3ccco3)n2)cc1, the Potency is reported as inconclusive [inhibitor, single point]. With Cc1ccc(C(=O)NCCN2C3=NC[C@H](Cc4ccc(O)cc4)N3C[C@H]2Cc2ccc(O)cc2)cc1Br the Potency was inconclusive [inhibitor, single point]. With CCOC(=O)N1CCN(C(=O)CSc2nc(-c3cccc(C)c3)ns2)CC1 the Potency was inconclusive [inhibitor, single point]. CCN1C(=O)/C(=C\c2ccco2)C(C(=O)OC)=C1C was tested, and the Potency was inconclusive [inhibitor, single point]. With C=CCN(C(=O)CCC(=O)Nc1cc(C)on1)C(C(=O)NC1CCCC1)c1ccc(CC)cc1 (centres undefined) the Potency was inconclusive [inhibitor, single point]. With CN(C)CCNc1c(N)c(=O)oc2ccccc12 the Potency was inconclusive [inhibitor, single point]. CN1C(=O)c2ccccc2NC(=O)[C@]12O[C@@H]2c1cccc(O)c1 was tested, and the Potency was inconclusive [inhibitor, single point]. With COc1cc(/C=C2\C(=O)ON=C2c2ccccc2)cc(Cl)c1O the Potency was inconclusive [inhibitor, partial curve, poor fit]. Cc1nnc(SCC2=C(C(=O)O)N3C(=O)C(NC(=O)Cn4ncc(Cl)c4C)C3SC2)s1 (centres undefined) was tested, and the Potency was inconclusive [inhibitor, single point]. For S=c1[nH]nc(-c2cc(-c3ccccc3)n[nH]2)n1/N=C/c1cccs1, the Potency was inconclusive [inhibitor, partial curve]. For Cc1cc(C)n(Cc2cc(C(=O)O)c3ccccc3n2)n1, the Potency was inconclusive [inhibitor, single point]. In the case of Cc1ccc(CCNC(=O)c2sc3ncccc3c2-n2c(C)ccc2C)cc1, the “activity change, negative = inhibition” value is reported as inactive: -14.2%. With Cn1cc(S(C)=O)c(=O)c2ccc(F)cc21 (centres undefined) the “activity change, negative = inhibition” value was inactive: -1.3%. With CC1=NN(c2ccc(Cl)c(C(=O)O)c2)C(=O)/C1=C\c1ccc(-c2ccc(C(=O)O)cc2)o1 the Potency was inconclusive [inhibitor, full curve]. With CC(=O)N1c2ccc(S(=O)(=O)N3CCC(C(=O)NC(C)c4ccccc4)CC3)cc2CC1C (centres undefined) the “activity change, negative = inhibition” value was inactive: 0.0256%. For O=C(Nc1ccc(O)cc1)c1cccc(S(=O)(=O)N2CCOCC2)c1, the Potency was inconclusive [inhibitor, single point]. For CC(=O)Nc1ccc(S(=O)(=O)NC(CC(=O)N(C)Cc2ccccc2)C(C)C)cc1 (centres undefined), the Potency was inconclusive [inhibitor, single point]. Cc1cc(NC(=O)CCC(=O)N(c2ccccc2)C(C(=O)NC2CCCC2)c2ccccc2C)no1 (centres undefined) was tested, and the “activity change, negative = inhibition” value was inactive: 10.2%. In the case of Cc1cc(N2CCN(C)CC2)nc2ccc(NC(=S)N3CCN(c4ccc(Cl)cc4)CC3)cc12, the Potency is reported as inconclusive [inhibitor, partial curve, poor fit]. O=c1cc(CSc2ccccc2)[nH]c(=S)[nH]1 was tested, and the Potency was inconclusive [inhibitor, single point]. For CC(=O)Nc1ccc(-c2csc(N/N=C\c3ccncc3)n2)cc1, the Potency was inconclusive [inhibitor, single point]. For CC/C(C)=N/Nc1nc2c(c(=O)[nH]c(=O)n2C)n1Cc1ccccc1, the Potency was inconclusive [inhibitor, single point]. O=C(O)c1cn(-c2ccccc2)nc1C(=O)O was tested, and the Potency was inconclusive [inhibitor, single point]. For O=C(Nc1ccc(F)cc1F)c1noc2c1CCc1ccccc1-2, the Potency was inconclusive [inhibitor, single point]. For Cc1[nH]c(=O)[nH]c(=O)c1S(=O)(=O)N1CCCC(C(=O)NCc2ccc3c(c2)OCO3)C1 (centres undefined), the Potency was inconclusive [inhibitor, full curve, poor fit]. With CCN1CCN(S(=O)(=O)c2ccc(Cl)c(C(=O)NC(C)(C)C)c2)CC1 the “activity change, negative = inhibition” value was inactive: 0.606%. For Clc1ccccc1OCc1nnc2n1CCCCC2, the “activity change, negative = inhibition” value was inactive: -1.59%. O=C(CCC1CCCC1)NCCCN1CCOCC1 was tested, and the “activity change, negative = inhibition” value was inactive: 3.79%. In the case of Cc1ccc(C)c(-n2nnnc2SCC(=O)c2ccc3c(c2)NC(=O)CO3)c1, the “activity change, negative = inhibition” value is reported as inactive: -9.68%. For O=C(NCC(=O)N(Cc1cccs1)C(C(=O)NC1CCCC1)c1ccncc1)c1ccco1 (centres undefined), the Potency was inconclusive [inhibitor, single point]. With CCOC(=O)c1c(CN(C)C)n(C)c2c(O)c(N=NC(N)=O)c3ccc(Br)cc3c12 the Potency was inconclusive [inhibitor, single point]. For COc1ccccc1CNC(=O)c1cnc2ccccn2c1=O, the Potency was inconclusive [inhibitor, single point]. In the case of Cn1nnnc1SCC1=C(C(=O)O)N2C(=O)[C@@H](NC(=O)[C@H](OC=O)c3ccccc3)[C@H]2SC1, the Potency is reported as active: 22.4 µM. CCn1nnnc1SCC(=O)Nc1cc(OC)cc(OC)c1 was tested, and the Potency was inconclusive [inhibitor, single point]. In the case of O=C(O)c1cc(N/N=C/c2c(O)ccc3ccccc23)ccc1Cl, the Potency is reported as inconclusive [inhibitor, single point]. With COCCNc1c2c(c(C#N)c3nc4ccccc4n13)CCCC2 the Potency was inconclusive [inhibitor, single point].
